# Reference: the supplement of paper PMC12632987
# Over roughly 1,800 sequences, “median log2 fold change of GCK-ALFA target abundance (FLAG IP / Myc IP barcode read proportion)” has its median near 0.14; the lowest 2% begin near -0.84. The list shows a part of the results.
# B1: traf2_out_16_104_1402 (protein)
# chain: SEERREEFERIIEELREIAEELQRIANEIYKLYEKASPEEKKKLSDLLVEASEARREALEAALEAEEALRRGGDLEEARRRLERARERAERVRKEAEELK
# B2: traf2_out_11_155_717 (protein)
# chain: EEKLKLNQELTNEIMEIADEADKELEKLIKEVEKKNPEVAKKLRELLEENKDKGITTKLLSAARLLEEAGLEEEAKKVLELLEETQKKMNELYKEYEKKL
# B3: traf2_out_6_156_2429 (protein)
# chain: KLEEILKETLEKIKKLIKELAKASEEKKISYISKIAGTVYKAFQQMRELGASVEELKEFGEKVLKEAKEWAKEAGLDESTINLLLASINAVTEVAIEEAK
# B4: traf2_out_5_63_2365 (protein)
# chain: SEEEEERRELREEARLIDAANNAVIAGDDAAAAALLAEAEARGISHRTMALHARGMARALRLQGADPAQIARMEAFAAELRAREAAAAAAEAAAAAAAAA
# B5: traf2_out_16_104_1381 (protein)
# chain: SEEKEKKFEEIIKEYNEIAEEANRLANEIYKLMETADEEKKKELSDLLVKVSELKREALEAAIEAEEALKKGGDLEKQEKKLKELKKKLEELKKEVKELK
# B6: traf2_out_9_108_2592 (protein)
# chain: MSEEEKLEETFKKVKELAEEFIKTVDLTPEQKEQLKKAIENAEKLYEEGLKRTAIILLAIDMARVASEVGEEAVEELLKRLKEIDERAYNAAKRMVELLK
# B7: traf2_out_14_149_1259 (protein)
# chain: SATEERKRALEEARELFREIAELLERAIEAGSTEVDLERLRELVRRAREILKKQGFVLGHLLAIEELLASREEFTLEDLRRLLELARRAAESAEVLAEML
# B8: traf2_out_1_27_1018 (protein)
# chain: STEELLKLIKETDKKIAESTIEEAKEIVKEALKEASKLGIGEVMILARTLIASEMDPERREAIKEAAIEAFKELGYPQEEIDRLKRAAETIKEKLEKLEA
# Target: T1, TRAF2, Q12933
# T1 chain: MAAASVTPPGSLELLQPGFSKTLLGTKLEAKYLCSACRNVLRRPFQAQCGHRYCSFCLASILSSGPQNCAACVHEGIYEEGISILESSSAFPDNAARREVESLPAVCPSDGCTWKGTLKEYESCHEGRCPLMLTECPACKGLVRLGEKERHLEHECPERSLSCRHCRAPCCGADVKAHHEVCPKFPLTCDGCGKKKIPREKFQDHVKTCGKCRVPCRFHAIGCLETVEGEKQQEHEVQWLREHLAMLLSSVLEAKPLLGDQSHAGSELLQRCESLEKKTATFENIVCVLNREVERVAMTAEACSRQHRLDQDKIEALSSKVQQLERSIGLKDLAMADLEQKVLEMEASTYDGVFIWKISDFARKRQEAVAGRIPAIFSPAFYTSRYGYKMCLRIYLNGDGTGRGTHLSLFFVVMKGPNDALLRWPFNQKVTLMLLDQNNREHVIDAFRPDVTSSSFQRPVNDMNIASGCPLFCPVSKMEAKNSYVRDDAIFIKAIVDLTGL
# Experiment: median log2 fold change of GCK-ALFA target abundance (FLAG IP / Myc IP barcode read proportion) (log2 ratio); each designed protein is fused to an ALFA-tag nanobody in HEK293 cells to bring the named protein to FLAG-tagged glucokinase (GCK); Myc marks an untargeted standard; higher = target protein stabilised (more abundant)
# Conditions: target protein: 3xFLAG-MCP-GCK-ALFA reporter; HEK293 landing pad (RPLP)
# Procedure, shortened: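 An ALFA-nanobody-fused binder library was recombined into HEK293 landing-pad cells and induced with 2 μg mL^−1 doxycycline. Cells were transfected with a plasmid expressing a FLAG-tagged target and a Myc-tagged standard. After 48 h, lysates underwent anti-FLAG and anti-Myc immunoprecipitation, and circular RNA barcodes were reverse transcribed, amplified and sequenced. Target abundance is the per-binder median log2 ratio of FLAG to Myc barcode read proportions. Barcodes needed ≥10^−7 proportion in both replicates, binders ≥3 barcodes per replicate, and a 10^−6 pseudocount was added; the two replicates were pooled.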
row,Binder,median log2 fold change
1,B1,0.241
2,B2,0.0275
3,B3,0.000118
4,B4,-0.838
5,B5,-0.145
6,B6,0.129
7,B7,0.013
8,B8,0.399
